About 14,000 (4.5%) of roughly 310,000 compounds showed an effect of 50% or more. The effect is printed as a negative number. The list shows a part of the results.
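Note: peak tail current of the secondary pulse compared with the same well before compound.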

This test deals with human ether-à-go-go-related gene (hERG) potassium channel (human, UniProt Q12809). Description: primary screen, population patch clamp on CHO cells stably expressing hERG.
human ether-à-go-go-related gene (hERG) potassium channel, sequence (Q12809 whole entry, looked up): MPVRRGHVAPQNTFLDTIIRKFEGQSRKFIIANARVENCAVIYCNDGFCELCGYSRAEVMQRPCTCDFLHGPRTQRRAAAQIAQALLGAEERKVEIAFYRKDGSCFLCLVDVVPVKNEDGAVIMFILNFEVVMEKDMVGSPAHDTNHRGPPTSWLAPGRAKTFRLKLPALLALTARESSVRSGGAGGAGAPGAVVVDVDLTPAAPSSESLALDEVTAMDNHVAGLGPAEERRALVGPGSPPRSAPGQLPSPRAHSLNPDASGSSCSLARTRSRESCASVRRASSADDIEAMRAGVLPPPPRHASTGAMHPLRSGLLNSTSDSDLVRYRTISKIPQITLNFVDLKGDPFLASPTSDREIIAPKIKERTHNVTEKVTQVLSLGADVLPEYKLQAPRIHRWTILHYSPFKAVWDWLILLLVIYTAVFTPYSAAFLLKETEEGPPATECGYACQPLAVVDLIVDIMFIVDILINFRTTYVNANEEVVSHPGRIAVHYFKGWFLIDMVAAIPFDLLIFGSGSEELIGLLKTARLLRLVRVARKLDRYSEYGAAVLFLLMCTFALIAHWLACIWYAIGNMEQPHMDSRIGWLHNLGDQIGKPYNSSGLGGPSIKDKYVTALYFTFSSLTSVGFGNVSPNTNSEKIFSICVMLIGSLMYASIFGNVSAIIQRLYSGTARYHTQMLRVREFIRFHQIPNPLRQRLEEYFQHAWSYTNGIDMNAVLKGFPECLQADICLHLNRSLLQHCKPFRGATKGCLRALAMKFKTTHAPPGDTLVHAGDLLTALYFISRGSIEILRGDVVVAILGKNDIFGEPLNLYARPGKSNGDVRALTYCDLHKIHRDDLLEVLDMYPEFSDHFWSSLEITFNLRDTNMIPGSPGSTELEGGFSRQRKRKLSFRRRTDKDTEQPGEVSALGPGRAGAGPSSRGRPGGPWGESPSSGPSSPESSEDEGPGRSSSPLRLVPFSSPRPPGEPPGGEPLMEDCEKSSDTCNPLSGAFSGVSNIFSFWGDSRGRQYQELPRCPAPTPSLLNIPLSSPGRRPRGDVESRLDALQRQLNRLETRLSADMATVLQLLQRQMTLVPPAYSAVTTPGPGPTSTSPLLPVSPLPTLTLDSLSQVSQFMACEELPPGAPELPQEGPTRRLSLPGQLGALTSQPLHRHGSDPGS
As for `COc1cc(OC)cc(C(=O)NC(C(=O)Nc2ccc3nc(C)sc3c2)C(C)C)c1` (stereo not drawn), the “hERG current change (%, negative = inhibition) at 10uM” value was found to be 2.05%. With `Cc1nn(-c2ccccc2)c(Cl)c1C(=O)OCC(=O)N(C)c1c(N)n(Cc2ccccc2)c(=O)[nH]c1=O`, the “hERG current change (%, negative = inhibition) at 10uM” value was -1.04%. For `CC(C)OCCCn1c(=O)c2ccccc2n2c(CCC(=O)O)nnc12` the value was 29.3%; for `COc1ccc(CNC(=O)COC(=O)CCn2c(C)csc2=O)cc1OC`, -17.2%. For `C#CCn1c(S(=O)(=O)Cc2ccc(C)cc2)nc(-c2ccccc2)c1-c1ccccc1` the value was 21.7%. For `COc1ccc(C(=O)Cn2cnc3ccccc3c2=O)cc1` the value was -1.4%; for `Cc1cccc(NC(=O)CSc2nnc(Cc3ccccc3)o2)c1`, 21%. Regarding `CC(=O)Nc1ccc(S(=O)(=O)Nc2ccccn2)cc1`, the “hERG current change (%, negative = inhibition) at 10uM” value is reported as 1.04%. For `CCCN1CCN(CCCNC(=O)Cn2nc(C)n3c(cc4cc(OC)ccc43)c2=O)CC1` the value was -1.19%; for `CC(=O)Cc1nsc(NC(=O)c2ccc(-c3ccccc3Cl)o2)n1`, -9.77%; for `CC1(C)CC(n2[nH]c(=O)c3c2NC(=O)CSC3c2ccc(F)cc2)CCO1` (stereo not drawn), -1.95%. As for `COc1ccc(-c2nnc(S/C(=C/c3ccc(Cl)cc3)C(=O)O)o2)cc1`, the “hERG current change (%, negative = inhibition) at 10uM” value is listed as 27.4%. Under `Cc1ccc(C(=O)Nc2ccc3c(c2)ncn3C)cc1` stands 0.434%; under `O=C(CN1CCN(S(=O)(=O)c2ccc(F)cc2)CC1)Nc1cccc(C(F)(F)F)c1`, -55.5%; under `COc1ccc(N/C=C/C(=O)C(F)(F)F)cc1`, -1.25%. Under `COc1ccc(CCNC(=O)Cn2nc(C(=O)O)c3ccccc3c2=O)cc1OC` stands 20.3%; under `CCOc1ccc(-n2c(SCC(=O)Nc3ccc(OC)cc3OC)nc3c(c2=O)SCC3)cc1`, -8.96%.

On to `CCCCC1CC(C)(C(=O)CSc2nc3ccccc3s2)OC1=O` (stereo not drawn), for which the “hERG current change (%, negative = inhibition) at 10uM” value is -0.178%. Under `O=C1C2C(c3ccccc3)=NN(c3ccccc3)C2C(=O)N1c1ccccc1` (stereo not drawn) stands 7.38%; under `C=CCOC(=O)C1=C(C)N=C2SCCC(=O)N2C1/C=C/c1ccccc1` (stereo not drawn), 3.78%; under `O=C(c1cc(-c2ccc(Cl)cc2)n(-c2ccc(Cl)cc2)n1)N1CCOCC1`, -80.8%. Take `CC(C)[C@H](NC(=O)N1CCC(Cc2ccccc2)CC1)C(=O)O`: the “hERG current change (%, negative = inhibition) at 10uM” value was 6.12%. For `CCN1CC(CN(C)Cc2nc(-c3ccc(Cl)cc3)no2)CC1=O` (stereo not drawn) the value was -59.1%; for `CCOC(=O)c1c(N)n(Cc2ccccc2)c2nc3ccccc3nc12`, -29.6%; for `COc1ccc(N/C=C2/CCCCC2=O)cc1`, -7.02%. For `CCN(CC)CCCNc1nc(N)c([N+](=O)[O-])c(NCCO)n1` the value was 8.83%; for `Cc1ccccc1CN1CCN(CC(=O)NC(C)c2ccccc2)CC1` (stereo not drawn), -14.5%; for `CCC(=O)OCC(=O)Nc1cc([N+](=O)[O-])ccc1Cl`, 30.6%. Under `CCC(CO)Nc1nc2ccc(Cl)cc2c2ccccc12` (stereo not drawn) stands 16.3%; under `CCN(C(=O)Cn1c(=O)n(Cc2ccccc2)c(=O)c2ccccc21)c1cccc(C)c1`, -7.37%. Consider `Cc1ccc(/C=C/C(=O)OCC(=O)NC(C)c2ccccc2)o1` (stereo not drawn), for which the “hERG current change (%, negative = inhibition) at 10uM” value is given as -4.46%. On to `O=C(NC1(C(F)(F)F)NC(=O)N(CC2CCCCC2)C1=O)c1ccco1` (stereo not drawn), for which the “hERG current change (%, negative = inhibition) at 10uM” value stood at 2.29%. Under `COc1ccc(OCC(=O)N2CCN(C3CCC(c4ccccc4)CC3)CC2)cc1` (stereo not drawn) stands -54.4%; under `CSc1nsc(N/N=C/c2ccccc2)c1C#N`, 15.2%; under `Cc1cccc(C)c1NC(=S)N/N=C/c1ccccc1C(=O)O`, 9.17%. For `CC(C)(C)c1ccc(C(=O)Nc2ccc([N+](=O)[O-])cn2)cc1` the value was 20.5%; for `O=C(NC1CCCCC1)C(=S)NC1CCCCC1`, 19.4%; for `Cc1csc2ncc(C(=O)Nc3ccccc3Cl)c(=O)n12`, 7.18%. For `Cc1ccc(S(=O)(=O)n2nccc2-c2c(-c3ccccc3)noc2C)cc1` the value was 9.91%; for `CCOC(=O)c1c(CN2CCOCC2)n(-c2ccccc2)c2cc(Br)c(O)cc12.Cl`, -7.35%. Consider `Cc1sc(-c2ccccn2)nc1OC(=O)c1ccc(Cl)cc1`, for which the “hERG current change (%, negative = inhibition) at 10uM” value is listed as 9.44%. Under `CN(C)C(CNC(=O)CNC(=O)c1ccc(Br)cc1)c1ccccc1` (stereo not drawn) stands -3.48%; under `COCC(=O)Nc1nnc(COc2ccccc2)s1`, 25.9%; under `Cc1ccc(S(=O)(=O)NCc2ccccc2)cc1`, 15.3%. As for `CC(=O)NC(CSC(CC(=O)c1ccco1)c1ccc(C)cc1)C(=O)O` (stereo not drawn), the “hERG current change (%, negative = inhibition) at 10uM” value was 42.5%. For `CCOC(=O)C(C(=O)c1ccccc1)C1CC(C)NC(=S)N1` (stereo not drawn) the value was 3.27%.

For the compound `O=C(Nc1nc(-c2ccccc2)c(-c2ccccc2)s1)c1ccc(S(=O)(=O)N(CCCl)CCCl)cc1`, the “hERG current change (%, negative = inhibition) at 10uM” value is given as 3.66%. For `CCN1C(=O)/C(=C/C=C2/SCCN2C)SC1=S` the value was 4.78%; for `O=C(Cn1nc(C(F)F)cc1C(F)F)NNC(=S)Nc1ccc([N+](=O)[O-])cc1`, 18.2%.

Consider `COc1ccc(CCN2C(=O)CC(NCc3ccc4c(c3)OCO4)C2=O)cc1OC` (stereo not drawn), for which the “hERG current change (%, negative = inhibition) at 10uM” value is -3.2%.

Consider `Cc1cc(C)c(NC(=O)CNC(=O)COC(=O)C2=COCCO2)c(C)c1`, for which the “hERG current change (%, negative = inhibition) at 10uM” value was 0.753%.

As for `COc1ccc(CNS(=O)(=O)c2ccc(-n3cccn3)cc2)cc1`, the “hERG current change (%, negative = inhibition) at 10uM” value is on record as -8.73%.

For `COC(=O)c1ccc(C2C(C(=O)c3ccc(C)o3)=C(O)C(=O)N2c2cc(C)on2)cc1` (stereo not drawn), the “hERG current change (%, negative = inhibition) at 10uM” value is given as 13%. Under `Cc1ccc(C)c(NC2=NCCCS2)c1` stands 1.48%; under `O=C(O)C1=C[C@@H](c2coc3ccccc3c2=O)C[C@@H](OCc2ccc(CO)cc2)O1`, 2.87%.

Regarding `Cc1nc(C2CCCCC2)c(-c2ccccc2)c(N2CCOC2=O)c1C`, the “hERG current change (%, negative = inhibition) at 10uM” value was -6.45%. Under `O=C(Nc1ccc2c(c1)OCO2)C1CCN(C(=O)c2ccc(Cl)cc2)CC1` stands -73.5%; under `COc1cc2c(cc1OC)C(c1ccc(-c3cc(Cl)ccc3Cl)o1)=NCC2`, -3.48%. For `O=C(NC1CCCCC1)C(c1ccccc1)N1CCc2ccccc21` (stereo not drawn) the value was -24.1%; for `COc1cccc(CNC(=O)C(Cc2ccccc2)n2cccc2)c1` (stereo not drawn), -7.59%. Under `O=C(CCN1C(=O)/C(=C/c2ccccc2F)SC1=S)Nc1cccnc1` stands 8.07%; under `COc1cc(C(=S)N(C)C)ccc1O`, -3.35%; under `O=C(Nc1ccc(SC(F)F)cc1)c1cc(-c2ccncc2)nc2ccccc12`, -11%.

For `Cc1ccc(S(=O)(=O)N[C@H](C(=O)NCC2CCC(C(=O)O)CC2)C(C)C)cc1` (stereo partly drawn), the “hERG current change (%, negative = inhibition) at 10uM” value is -3.38%.

Turning to `O=C1CC(c2ccco2)CC(O)=C1C=Nc1cc(Cl)ccc1Cl` (stereo not drawn), the “hERG current change (%, negative = inhibition) at 10uM” value is given as 4.03%.

Take `CCN(C(=O)COC(=O)c1nc(Cl)ccc1Cl)C1CCS(=O)(=O)C1` (stereo not drawn): the “hERG current change (%, negative = inhibition) at 10uM” value was -2.3%. Turning to `CC(C)Oc1ccc(C2CNC(=O)C2)cc1` (stereo not drawn), the “hERG current change (%, negative = inhibition) at 10uM” value was 15.2%. For `Nc1nc(SCC(=O)Nc2ccc(Cl)cc2)[nH]c(=O)c1-c1ccccc1` the value was 19.9%; for `O=C(Nc1ccc2nc(-c3cccs3)[nH]c2c1)c1cccs1`, -10.7%; for `COc1ccc(NC(=S)Nc2ccccc2)cc1`, 17.6%. Consider `CC(=O)Nc1ccc(-c2ccnc(-c3ccc(NC(C)=O)cc3)n2)cc1`, for which the “hERG current change (%, negative = inhibition) at 10uM” value worked out at 31.8%.

Consider `Cc1cccc(C)c1NC(=O)COC(=O)c1ccccc1[N+](=O)[O-]`, for which the “hERG current change (%, negative = inhibition) at 10uM” value stood at 19.7%. Turning to `CC(C)Nc1nc(Oc2ccc(=O)n(-c3ccccc3)n2)nc(N(C)C)n1`, the “hERG current change (%, negative = inhibition) at 10uM” value turned out to be 4.33%. Under `COc1cc(NC(=O)CN2C(=O)NC(C)(c3ccc(OC(F)F)cc3)C2=O)cc(OC)c1OC` (stereo not drawn) stands -12.9%; under `Br.COc1ccc(-c2csc(CCN3N=C(C)CC3=O)n2)cc1`, 12.7%; under `CCN(CC)c1ccc(NC(=O)c2ccc(=O)[nH]c2)cc1S(=O)(=O)Nc1ccccc1OC`, 7.16%. For `CC(C)CSc1nc(N2CCOCC2)c2c(c1C#N)CC(C)(C)SC2` the value was -2.91%; for `CC(C)N(C(=O)Cn1c(SCC(=O)N2CCN(c3ccccc3)CC2)nc2ccccc21)C(C)C`, 16.2%.

For `COc1ccc(-c2ccc(CCC(=O)O)n2CC(C)C)cc1`, the “hERG current change (%, negative = inhibition) at 10uM” value was determined as 1.24%. For `CCc1ccc(OCC(=O)N2CCN(CC(=O)Nc3ccccc3Cl)CC2)cc1` the value was -80.7%; for `C/C(=N\NC(=O)CC(C)C)c1ccc(Cl)c(Cl)c1`, 30.7%; for `O=C(COC(=O)c1ccccc1Cl)Nc1cccnc1Cl`, 1.05%. For `Cc1ccccc1Nc1cc(C(=O)NCc2ccco2)c2ccccc2n1` the value was 20.3%; for `CC(NC(=O)/C(C#N)=C1\N=C(NC(=O)c2ccco2)c2ccccc21)c1ccccc1` (stereo not drawn), -9.42%; for `COc1ccccc1N1CCN(S(=O)(=O)c2ccc(Cl)s2)CC1`, 0.669%.

`Cc1n[nH]c(=O)c2c(NC(=O)CSc3nnnn3-c3ccc(O)cc3)oc(C)c12`: the “hERG current change (%, negative = inhibition) at 10uM” value turned out to be 26.3%.

Regarding `CCCCNC(=O)CC1N=C2c3ccccc3N=C(SCC(=O)Nc3ccccc3C)N2C1=O` (stereo not drawn), the “hERG current change (%, negative = inhibition) at 10uM” value was -0.929%.
